T1: UNK ZnF1-3 (human, UniProt Q9C0B0 31-174)
T1 sequence: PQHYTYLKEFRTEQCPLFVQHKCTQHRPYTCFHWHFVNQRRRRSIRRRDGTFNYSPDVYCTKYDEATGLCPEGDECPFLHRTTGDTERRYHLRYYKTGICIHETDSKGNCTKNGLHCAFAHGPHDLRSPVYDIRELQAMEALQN

B1: chr5:151042278:151042279:-_ENSG00000113140_ENST00000231061|hu_hu|FALSE|FALSE (ssRNA)
RNA: GGGAGUUCUACAGUCCGACGAUCAUGACAAUCAUCCAAAUGUGAGGAAAGAACAACCGAUUCACCAACUCCACUUUUUCUAUUUUACAACUUUCUACAUCUCACUCUUGAUUUUGGCCUUCCUGGCUGAAACAGCCUGGCAGUCAACAGAGGAUUGAGCAUCA
B2: chr9:64576133:64576134:-_ENSMUSG00000004771_ENSMUST00000172298|mus_hu|motif|central (ssRNA)
RNA: GGGAGUUCUACAGUCCGACGAUCUGUCCCAUAUCUGUGCCUUUAUUGUUUUUCCAUCAACCUGGAUGCUUCUUGUUGCAAACUCGGCUCCAAUGGUGCUCUUGCUUUCCAGAUUAAACUCAUUUCGAGUAAAUCGAGACAGGACAACAGAGGAUUGAGCAUCA
B3: 155504106_155530241_1416_CDS_ENSG00000184863_ENST00000401878|human|control|control (ssRNA)
RNA: GGGAGUUCUACAGUCCGACGAUCUGGAAAUUCUGGAGGGCCUGGGAAUCUCUGGGGUCCCACGGCAGGUCUCGGCUGGCUCGGAACUGGUAGCAAGGGCACUUGAACAGGCGUGACCACCGUCCCUUUGAAGUGCGGGUUGAUCAACAGAGGAUUGAGCAUCA
B4: 4354425_4416706_570_5pUTR_ENSMUSG00000020647_ENSMUST00000085814|mouse|control|control (ssRNA)
RNA: GGGAGUUCUACAGUCCGACGAUCGCUUCUGGGGGAGUAAUGCAGUGUGUCCAGAGAUGGCGCUCGUCGGUUUGCUCUCACCUCAUUUAAGGUCAAUUACACGGACAACUUUGAAUAAGUAGAAAGUCUGAAUGUUGGUGUCUUCAACAGAGGAUUGAGCAUCA
B5: chr4:184628046:184628047:+_ENSG00000168538_ENST00000334690|hu_hu|motif|central (ssRNA)
RNA: GGGAGUUCUACAGUCCGACGAUCGAGACCUGAGAACAUGAAGGCAUCACUGGGCUCCACAGAAAUUUCUACAUCUUGAACGGAGUCGGUCUUAUUCUGUAGGUGAUACUUGACAGGUAACGACUCUCUGACACGCCCAAAUGACAACAGAGGAUUGAGCAUCA
B6: chr17:40142368:40142369:-_ENSG00000168259_ENST00000588814|hu_hu|motif|central (ssRNA)
RNA: GGGAGUUCUACAGUCCGACGAUCAUUCGUAGAAUGUCACUAGCCACAGACUGUGCUUCUGGAUAACGACCCAGCAUUGCGGAACAUUCUGCCUUGAGGAUUUUGAAGCGAUGGCAGGCAGGGGCAAAUUCUAGGGCACGGUCCCAACAGAGGAUUGAGCAUCA
B7: chr19:16212804:16212805:+_ENSG00000167460_ENST00000300933|hu_mus|hu_hu_hu_mus_False|28_78 (ssRNA)
RNA: GGGAGUUCUACAGUCCGACGAUCAACAAUUCUGGAGUGAAGGAAAGAUGUAACAUGCAAUUAAUUAAAAGCUCAGUCAGAAGGCACAUGGGCAACAAUGAUCACCCCCCAAGCAUUGCUUGGAAUGCUUAAAGACAAUCUGUUCAACAGAGGAUUGAGCAUCA
B8: chr1:25551555:25551556:-_ENSG00000117614_ENST00000236273|hu_hu|motif|central (ssRNA)
RNA: GGGAGUUCUACAGUCCGACGAUCUAUGACCAUCCUGUCAAUUUCCUCUGUGGAAGGCACAUGUGUUCCAUGAAGAAGACGGUUGGAUGUUGGGAAAAACUCUUCUCCAUGUUUUUCUCUCAGUCUCUCAUAUGUUUCCAUGUCCAACAGAGGAUUGAGCAUCA
B9: chr1:145602572:145602573:-_ENSMUSG00000018199_ENSMUST00000159879|mus_mus|motif|central (ssRNA)
RNA: GGGAGUUCUACAGUCCGACGAUCCUGUUCAAGGCCAGCCUGGUCUACACAGUGAGCUCUAGAAUAGCCAGGACUAUGUCGGUGGAGAGAGACCCUGUCACAAAACAAAACAAAACAAAACAAAAUAACCAUCACACACACAUCCAACAGAGGAUUGAGCAUCA
B10: chr16:44739181:44739182:-_ENSMUSG00000022668_ENSMUST00000162512|mus_hu|motif|central (ssRNA)
RNA: GGGAGUUCUACAGUCCGACGAUCAACAGGUUUUCAUUUUAUGGAUGUGCUCUUGUCAGUUUGUUAAAAUAGGGGAAUCAGCGGGUAGCUGUUCUAAUGAACACCAUAAUUCAAUAACUUACAAACUUUUUUCACCUCAGGCACCAACAGAGGAUUGAGCAUCA
B11: chr5:23655024:23655025:+_ENSMUSG00000028986_ENSMUST00000030841|mus_hu|FALSE|FALSE (ssRNA)
RNA: GGGAGUUCUACAGUCCGACGAUCAUUAUAGCAGUCCAUUCGCUUUAUUGGGAAAAGCUGAGAGCCUCCCAAAAUGUAUACUACAUUGUCCCAAAACACGCAUGCUGCAUCUCUUCGUUUUUCAAAGGGGCAGCGGAUGUCUGUCAACAGAGGAUUGAGCAUCA
B12: 79657428_79657548_2643_3pUTR_ENSMUSG00000089715_ENSMUST00000109627|mouse|control|control (ssRNA)
RNA: GGGAGUUCUACAGUCCGACGAUCCAGUACCACAUCUGCAGUGAAGAUCUGACCUUCAAGAUGACCAUCCCAAGAAGGGCCUGAGGUGGCUCCACGUCCCCCAGCAACCUGGGAUCAGAGUGGCCUGUGGCUUCCACGACAAACCAACAGAGGAUUGAGCAUCA
B13: 50296631_50299613_2368_3pUTR_ENSMUSG00000043531_ENSMUST00000164039|mouse|control|control (ssRNA)
RNA: GGGAGUUCUACAGUCCGACGAUCUCUGUCCCAAGCUGCAGUCUUUUGACAGUGAGGAUGGGUUGAACCAAAAUGCUGGCAGGCAUUGUCCAUUACUAUGUCUCUCAUAGCCAUAGUCACAGUCAAAGUCUGCCUCUGUACAAACAACAGAGGAUUGAGCAUCA
B14: chr6:41757443:41757444:+_ENSG00000214736_ENST00000398881|hu_mus|hu_hu_hu_mus_False|28_78 (ssRNA)
RNA: GGGAGUUCUACAGUCCGACGAUCGAACCGUGCAGAGGCAACAUCUCAGCCGACACUGUGGACUCAAGGGGCAGUGGGGGGGGGUUCAGGCAAGGAGAGGGAGUCAACCCAUCUGAACACUCAGGUAGGAUCUUGUGGUCACAGCAACAGAGGAUUGAGCAUCA
B15: chr1:63100574:63100575:-_ENSG00000116641_ENST00000251157|hu_mus|FALSE|FALSE (ssRNA)
RNA: GGGAGUUCUACAGUCCGACGAUCAGCAGGGGGCACAUGCGGUCGUAACAGUCCCUUCAUCUGCUCUGAAUUAAGGUCGAAAUAAAAAUUCUCGGAAAUCUUUUUCUUCUCCUUGACAUCAUAUAAAGCCAAACUUGCAAAAAUCAACAGAGGAUUGAGCAUCA
B16: chr18:10010065:10010066:-_ENSMUSG00000047879_ENSMUST00000092096|mus_mus|FALSE|FALSE (ssRNA)
RNA: GGGAGUUCUACAGUCCGACGAUCCAGAAUAAUAGGUGGGAUACUAGAAGAAGUUUUAUCCAUGGAAUCAAACAAAUCUCUAAGAGCUGCAGUAAUAUACUGUGCUGAAGCCAUUUCUCCUGAAGCUCUCAACGCACCUGCAUACAACAGAGGAUUGAGCAUCA
B17: chr17:71578653:71578654:+_ENSMUSG00000024052_ENSMUST00000129635|mus_mus|motif|central (ssRNA)
RNA: GGGAGUUCUACAGUCCGACGAUCAGAUCCUCUUGCUGCCUGGGCUCUCUUCUCAUCAUCUGAGCUCACACCCACAUCACCGGCAUCUUCUGCAACAGGGGAAGCUGCCUGCUCCUCCUUCCUAUUGUCCUGUUUGCACUUCUUCAACAGAGGAUUGAGCAUCA
B18: chr12:27888400:27888401:+_ENSG00000061794_ENST00000081029|hu_mus|FALSE|FALSE (ssRNA)
RNA: GGGAGUUCUACAGUCCGACGAUCGGCCUUGCAGUACCGCUCUCCUACAAGCUUAAUGAGUUUUUUCUUGGCAUGAUUGUCUAAAUUCAAACUGGAAAGUUUAACCCUUAACGUUACGGCUCGGGCUUUGGGGUUUCGAAUAGACAACAGAGGAUUGAGCAUCA
B19: chr7:74146866:74146867:+_ENSG00000077809_ENST00000416070|hu_mus|motif|central (ssRNA)
RNA: GGGAGUUCUACAGUCCGACGAUCUUCCUUCGCCAGCAAUAUCCUCUCAAGGCGAGGAAUGCCGUACGUCGACGGCCUUCGGAAAGGAAUCCCUUCAGGAAGCCCUUCUACGUAAAGAUCUUCAACAUGGGACUGGAAAAGAGGCAACAGAGGAUUGAGCAUCA
B20: 88515521_88517607_392_CDS_ENSMUSG00000034111_ENSMUST00000037418|mouse|control|control (ssRNA)
RNA: GGGAGUUCUACAGUCCGACGAUCUUCCAAGUCCGCUGAAAGAACAUCUAUAGCCCCAGUGUGCUCAGACUGGAUCAUAACUGUGUCCUCAGGUCGCUGUGGAGCUUGGUACUUGGCCAUCUCACUGAGAACCUGGGUCUGGCCCAACAGAGGAUUGAGCAUCA
B21: chr11:51414962:51414963:-_ENSMUSG00000020358_ENSMUST00000074669|mus_hu|motif|central (ssRNA)
RNA: GGGAGUUCUACAGUCCGACGAUCGUAUGGCUUGUAGUUAUUCUGAUGGCCACCACGUCGCUGGCUCUUGCCGUAGUUUGUACGGCCCUGACUGUAGUCGUAGCCGGGGCCGUAGCCGUAAUAGCCAUAGGGCGAGUAGUCGUACAACAGAGGAUUGAGCAUCA
B22: chr11:94812113:94812114:+_ENSMUSG00000001506_ENSMUST00000001547|mus_mus|FALSE|FALSE (ssRNA)
RNA: GGGAGUUCUACAGUCCGACGAUCCUUUUCCUUGGGGUUCGGGCUGAUGUACCAGUUCUUCUGAGGCACAGACGGCUGAGUAGGGAACACACAGGUCUGACCUGUCUCCAUGUUGCAGUAGACCUUGAUGGCGUCCAGGUUGCACAACAGAGGAUUGAGCAUCA

Some of the results follow.

The target in the assay is T1, UNK ZnF1-3. The assay is described as follows: nsRBNS (natural sequence RNA bind-n-seq); RBNS binding buffer (assumed for nsRBNS): 25 mM Tris pH 7.5, 150 mM KCl, 3 mM MgCl2, 0.01% Triton X-100, 500 ug/ml BSA, 20 U/ml SUPERase-In, 4 C; UNK is unkempt and MSI1 is Musashi-1; names of the RNAs are library labels; protein concentration not given here; high values mean tight binding.
Molecule B1 came in with a binding signal of 1.12 enrichment R.

B2 came in with a binding signal of 0.836 enrichment R.

In turn, B3 yielded a binding signal of 0.927 enrichment R.

For B4, the binding signal stood at 0.834 enrichment R.

B5 gave a binding signal of 1.27 enrichment R.

Take B6: the binding signal is 1.23 enrichment R.

As for B7, the binding signal came to 1.51 enrichment R.

Regarding B8, the binding signal was 0.577 enrichment R.

With B9, the binding signal was found to be 1.84 enrichment R.

B10 showed a binding signal of 1.4 enrichment R.

Regarding B11, the binding signal worked out at 0.536 enrichment R.

The molecule B12 returned a binding signal of 1.19 enrichment R.

In the case of B13, the binding signal stood at 0.839 enrichment R.

For the molecule B14, the binding signal turned out to be 2.27 enrichment R.

With B15, the binding signal turned out to be 1.2 enrichment R.

As for B16, the binding signal turned out to be 1.28 enrichment R.

The molecule B17 showed a binding signal of 0.873 enrichment R.

B18 gave a binding signal of 0.803 enrichment R.

Molecule B19 registered a binding signal of 0.638 enrichment R.

The molecule B20 displayed a binding signal of 0.814 enrichment R.

B21: the binding signal came to 0.43 enrichment R.

B22: the binding signal was 0.823 enrichment R.

The record behind these values is publication PMC12136788.
